32 variants from the GPR68 mutational scans of Howard et al. (2025) can be followed below.

The chains are these.
B1: GPR68, Q15743 (parent)
chain: MGNITADNSSMSCTIDHTIHQTLAPVVYVTVLVVGFPANCLSLYFGYLQIKARNELGVYLCNLTVADLFYICSLPFWLQYVLQHDNWSHGDLSCQVCGILLYENIYISVGFLCCISVDRYLAVAHPFRFHQFRTLKAAVGVSVVIWAKELLTSIYFLMHEEVIEDENQHRVCFEHYPIQAWQRAINYYRFLVGFLFPICLLLASYQGILRAVRRSHGTQKSRKDQIQRLVLSTVVIFLACFLPYHVLLLVRSVWEASCDFAKGVFNAYHFSLLLTSFNCVADPVLYCFVSETTHRDLARLRGACLAFLTCSRTGRAREAYPLGAPEASGKSGAQGEEPELLTKLHPAFQTPNSPGSGGFPTGRLA

The variants in data set [1] derive from B1. Briefly: cAMP reporter score (Enrich2 score, wild type = 0); higher = more signal; HEK293T, FACS bins.
Variants of B1 are the subject of data set [2]. Briefly: surface expression score (Enrich2 score, wild type = 0); higher = more signal; HEK293T, FACS bins.

Scores whose standard error is large were omitted. Not listed are two conditions whose scores span a narrow range. In variant names, del marks residues removed and ins residues inserted between the two positions. For some assays here: The data file names ogerin without a concentration.

On to K343N, for which the cAMP reporter score is -0.451 in data set [1] (pH 5.5); -0.076 in data set [1] (pH 6); -0.782 in data set [1] (pH 6, modulator: ogerin); -0.135 in data set [1] (pH 6.5, modulator: ogerin). In data set [2], the surface expression score is 0.123.
Taken in the same sequence, the figures for K343A were 1.01, 1.84, 0.849, 1.39 and 0.951.
Taken in the same sequence, the figures for K343F were 1.45, -0.191, 0.823, 0.469 and 1.77.
Regarding K343P, the cAMP reporter score in data set [1] (pH 5.5) was 1.76; in data set [1] (pH 6, modulator: ogerin), 1.37; in data set [1] (pH 6.5, modulator: ogerin), 1.78. Besides, the surface expression score in data set [2] came to 1.31.
On to K343M, for which the cAMP reporter score in data set [1] (pH 5.5) is -0.712; in data set [1] (pH 6), -0.616; in data set [1] (pH 6, modulator: ogerin), -0.3; in data set [1] (pH 6.5, modulator: ogerin) it was -0.344. In data set [2], the surface expression score is -0.066.
Taken in the same sequence, the figures for K343E were -0.429, 0.15, -0.417, -0.069 and -0.119.
Regarding K343C, the cAMP reporter score in data set [1] (pH 5.5) is 0.579. Moreover, the surface expression score in data set [2] stood at 0.75.
Take K343L: the cAMP reporter score in data set [1] (pH 5.5) was 1.14; in data set [1] (pH 6) it was -0.965; in data set [1] (pH 6, modulator: ogerin), 1.26. Moreover, the surface expression score in data set [2] is -0.054.
For Q349_T350insGS, the cAMP reporter score in data set [1] (pH 5.5) came to 0.499; in data set [1] (pH 6) it was 0.572; in data set [1] (pH 6, modulator: ogerin) it was 0.847; in data set [1] (pH 6.5, modulator: ogerin), 0.228. Moreover, in data set [2], the surface expression score is 0.232.
P338C: the cAMP reporter score in data set [1] (pH 5.5) amounted to 0.73; in data set [1] (pH 6, modulator: ogerin), 0.197; in data set [1] (pH 6.5, modulator: ogerin), 0.213. Moreover, in data set [2], the surface expression score was 0.731.
Turning to P338T, the cAMP reporter score in data set [1] (pH 5.5) is 0.475; in data set [1] (pH 6), -0.769; in data set [1] (pH 6, modulator: ogerin), 0.205; in data set [1] (pH 6.5, modulator: ogerin) it was 0.048. Also, the surface expression score in data set [2] is -0.452.
For P338K, in that order: -0.368, -0.619, -0.637, 0.184 and -0.057.
For P338Q, in that order: 0.686, -0.371, 0.254, 0.095 and -0.706.
Taken in the same sequence, the figures for P338A were 0.152, -0.119, -0.434, -0.418 and 0.513.
As to P338I, the cAMP reporter score was 0.677 in data set [1] (pH 5.5); 0.307 in data set [1] (pH 6); 0.519 in data set [1] (pH 6, modulator: ogerin); 0.046 in data set [1] (pH 6.5, modulator: ogerin). For the same variant, the surface expression score in data set [2] worked out at 0.946.
Taken in the same sequence, the figures for P338N were 1.1, -0.016, 0.506, 0.374 and 0.57.
For P338Y, in that order: -0.471, 0.595, -0.627, 0.451 and -0.172.
In the case of P338R, the cAMP reporter score came out at 0.323 in data set [1] (pH 5.5); 1.09 in data set [1] (pH 6, modulator: ogerin); 1.05 in data set [1] (pH 6.5, modulator: ogerin). In addition, the surface expression score in data set [2] amounted to 0.777.
Take P338W: the cAMP reporter score in data set [1] (pH 5.5) is 0.321; in data set [1] (pH 6), -1.58; in data set [1] (pH 6, modulator: ogerin) it was -0.483; in data set [1] (pH 6.5, modulator: ogerin), -0.934. For the same variant, in data set [2], the surface expression score was -0.582.
For P338F, in that order: 0.046, -1.58, -0.197, 0.242 and 0.341.
Turning to P338S, the cAMP reporter score in data set [1] (pH 5.5) is -0.485; in data set [1] (pH 6, modulator: ogerin), -1.47; in data set [1] (pH 6.5, modulator: ogerin), -0.395. Also, in data set [2], the surface expression score was -0.434.
Take P338M: the cAMP reporter score was -0.324 in data set [1] (pH 5.5); -0.943 in data set [1] (pH 6); 0.197 in data set [1] (pH 6, modulator: ogerin); -0.206 in data set [1] (pH 6.5, modulator: ogerin). Also, in data set [2], the surface expression score is -0.26.
For P338H, in that order: 0.608, -0.216, 1.42, 1.4 and 0.737.
As for P338E, the cAMP reporter score in data set [1] (pH 5.5) is 1.34; in data set [1] (pH 6), -0.57; in data set [1] (pH 6, modulator: ogerin), -0.042; in data set [1] (pH 6.5, modulator: ogerin), -0.403.
Turning to P338D, the cAMP reporter score in data set [1] (pH 5.5) was 1.42; in data set [1] (pH 6), 0.311; in data set [1] (pH 6, modulator: ogerin), 0.851; in data set [1] (pH 6.5, modulator: ogerin) it was -0.243. Also, the surface expression score in data set [2] was 1.05.
Take P338V: the cAMP reporter score in data set [1] (pH 5.5) was 0.845; in data set [1] (pH 6), 1.5; in data set [1] (pH 6, modulator: ogerin) it was 0.732; in data set [1] (pH 6.5, modulator: ogerin), 1.31. In addition, the surface expression score in data set [2] stood at 0.697.
On to P338G, for which the cAMP reporter score in data set [1] (pH 5.5) is -0.294; in data set [1] (pH 6), -0.538; in data set [1] (pH 6, modulator: ogerin) it was 0.171; in data set [1] (pH 6.5, modulator: ogerin) it was -0.366. Besides, in data set [2], the surface expression score turned out to be 0.014.
On to E339_L340insGSG, for which the cAMP reporter score is -0.07 in data set [1] (pH 5.5); 1.39 in data set [1] (pH 6); 0.425 in data set [1] (pH 6, modulator: ogerin); 1.03 in data set [1] (pH 6.5, modulator: ogerin). The surface expression score in data set [2] is 0.434.
For T342_K343insGSG, in that order: 0.266, 0.537, 0.161, 1.07 and 0.133.
Consider T350del, for which the cAMP reporter score in data set [1] (pH 5.5) was -0.275; in data set [1] (pH 6), -0.44; in data set [1] (pH 6.5, modulator: ogerin), 1.23. In addition, in data set [2], the surface expression score came to 0.224.
Consider A347_F348del, for which the cAMP reporter score in data set [1] (pH 5.5) stood at 0.339; in data set [1] (pH 6), 0.063; in data set [1] (pH 6, modulator: ogerin), 0.662; in data set [1] (pH 6.5, modulator: ogerin), 0.279. In addition, the surface expression score in data set [2] stood at 0.271.
As for P338_L340del, the cAMP reporter score in data set [1] (pH 5.5) turned out to be 0.961; in data set [1] (pH 6, modulator: ogerin) it was 0.624; in data set [1] (pH 6.5, modulator: ogerin), 0.826. Further, in data set [2], the surface expression score was determined as 1.71.
